The supplement of paper PMC11417369
The other results are listed elsewhere or left out.

test system: PfAP2-HC AP2 domain (GST-tagged); assay: gcPBM binding intensity (ln(normalized median fluorescence intensity)); higher = stronger DNA binding
Outline: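 Alexa488 anti-GST antibody, scanned at 488 nm, detected GST-tagged P. falciparum DNA-binding domains that had been expressed in E. coli and incubated for 1 h on an Agilent 4 × 180k array. The array carried primer-extended double-stranded 36-bp intergenic genomic probes and negative controls. Binding intensity is the highest Masliner-normalised natural-log median intensity across replicate spots of either orientation of each probe.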

Sequence | gcPBM binding intensity (ln)
TTATATAAAGAATGTACACACAGAAATGCACAGACA [CACACA_site5288] | 10.1
GCTTATATTAATAAGGTGCTTTTTATTTCGTGTGTA [GTGCAC_site9649] | 9.92
TCATAGTATAAACACACACACACACCCATATATATA [CACACA_site8512] | 11
AGAATGGTTTATAAAGGTACGTAATTTTTAATTTTA [XGTACX_site383] | 9.51
ATATGTCCATATAGTAAATGTTACATTTTAAAGCGC [XGTACX_negctrl_site168] | 9.61
CATATTTTGTGAAAAAGTACATATATATATATATAT [XGTACX_site6295] | 9.51
AAAATATTTATTTTTTGTACACATAAAAACGCACTT [XGTACX_site4132] | 9.68
ATTCTTAAAAAATAAGTGCAAAATAATTAAATAAAT | 9.67
TATTGAATAAAATGCACACGCATGCGTTATTTATTA [CACACA_site3479] | 9.69
AAACGTATTCTATAAAGTACATTATTATAGTAGACC [XGTACX_site8068] | 9.68
TAAAAAAATTATATTTGTACATATTAATATAGCCTT [XGTACX_site4833] | 9.63
TTATAATTAAATTTCACACAGTTCATAACATAATTA [CACACA_site5501] | 9.5
TAAGGGAGAGATTTGTATCATAAGCAACTTTCAAAA [CACACA_negctrl_site1436] | 9.47
TTTATATGTTTTAAGTGTACACATATAATGTATTTT [XGTACX_site3069] | 9.76
ACTTTCAACATGAAGTTGCACTTTTTTTTTTTTCTT | 9.93
AGCCCTTTTTTTTTTTAGAATATTGCATAATTATAT [XGTACX_negctrl_site546] | 9.75
TATATAAATATATCCACACACATACCTATATTAATA [CACACA_site6184] | 10.4
GTATTGTATGGATGGGGTACTATATATATATATTTT [XGTACX_site1694] | 10
AGACAATATTAATAAGGTACACATATATATTAAAAA [XGTACX_site6709] | 9.78
TAATTAAATAAAAAAAAATATATATATATATATATA [XGTACX_negctrl_site616] | 9.58
TTTTTTAAAAATAACTGTACAGAGGCTGTTAGGATA [XGTACX_site2521] | 9.54
TCCATATGCATGTATTGTACTGTAATATATTAAAAA [XGTACX_site472] | 9.38
AAAAAAAAAAAAGAAACACACACATATATATATATA [CACACA_site8525] | 10.7
AGCAGTCGACAGGACAGTACACAGTAGCCAGGAAAT [XGTACX_site4929] | 9.65
TAAATATATAAATACACACACACCAAAGCAATAGAT [CACACA_site5605] | 10.5
